The other results are listed elsewhere or left out. Repeats are few or missing, and single values can be far off.
How the values were obtained:
Assay in all cases: cell count relative to DMSO control; melanoma cells; higher = more viable cells
Details in all cases: library dose: standard library concentration; 72 h
A101D = system: A101D
A2058 = system: A2058
A375 = system: A375
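Also: cells treated in 1,536-well plates, then fixed and DAPI-stained, with nuclei counted from automated high-throughput microscope images.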

Compound | cell count (A101D) [%] | cell count (A2058) [%] | cell count (A375) [%]
CC(C)C[C@H](NC(=O)[C@H](Cc1ccccc1)NC(=O)c1cnccn1)B(O)O [Bortezomib] + C[C@]1(c2nc3c(C(N)=O)cccc3[nH]2)CCCN1 [Veliparib] (first compound 0.005 µM, partner dose 7 µM) | 18.5 | 17.9 | 77.8
Cc1cc(Nc2cc(N3CCN(C)CC3)nc(/C=C/c3ccccc3)n2)n[nH]1 + COc1ccc(Cl)c(Nc2nc3ccccc3nc2NS(=O)(=O)c2cccc(NC(=O)C(C)(C)N)c2)c1 [XL147] (first compound 0.2 µM, partner dose 4 µM) | 83.3 | 66.3 | 70.2
COc1ccc(C2=N[C@@H](c3ccc(Cl)cc3)[C@@H](c3ccc(Cl)cc3)N2C(=O)N2CCNC(=O)C2)c(OC(C)C)c1 [Nutlin-3] + CS(=O)(=O)CCNCc1ccc(-c2ccc3ncnc(Nc4ccc(OCc5cccc(F)c5)c(Cl)c4)c3c2)o1 [lapatinib] (first compound 0.5 µM, partner dose 4 µM) | 79 | 110 | 121
COc1ccc(C2=N[C@@H](c3ccc(Cl)cc3)[C@@H](c3ccc(Cl)cc3)N2C(=O)N2CCNC(=O)C2)c(OC(C)C)c1 [Nutlin-3] + Nc1ccn([C@@H]2O[C@H](CO)[C@@H](O)C2(F)F)c(=O)n1 [gemcitabine] (first compound 0.5 µM, partner dose 0.002 µM) | 80.8 | 64.7 | 101
CC(C)C[C@H](NC(=O)[C@H](Cc1ccccc1)NC(=O)c1cnccn1)B(O)O [Bortezomib] + CN1CCN(c2ccc3nc(-c4c(N)c5c(F)cccc5[nH]c4=O)[nH]c3c2)CC1 [Dovitinib] (first compound 0.005 µM, partner dose 0.5 µM) | 14.3 | 9.71 | 74.6
CC(C)C[C@H](NC(=O)[C@H](Cc1ccccc1)NC(=O)c1cnccn1)B(O)O [Bortezomib] + NC(=O)Nc1cc(-c2cccc(F)c2)sc1C(=O)N[C@H]1CCCNC1 [AZD7762] (first compound 0.005 µM, partner dose 0.1 µM) | 26.6 | 16.6 | 64.1
Cn1c(=O)n(-c2ccc(C(C)(C)C#N)cc2)c2c3cc(-c4cnc5ccccc5c4)ccc3ncc21 + COc1ccc(Cl)c(Nc2nc3ccccc3nc2NS(=O)(=O)c2cccc(NC(=O)C(C)(C)N)c2)c1 [XL147] (first compound 0.02 µM, partner dose 4 µM) | 81.3 | 58.3 | 91.5
COc1ccc(C2=N[C@@H](c3ccc(Cl)cc3)[C@@H](c3ccc(Cl)cc3)N2C(=O)N2CCNC(=O)C2)c(OC(C)C)c1 [Nutlin-3] + C=CCNC1=C2C[C@@H](C)C[C@H](OC)[C@H](O)[C@@H](C)/C=C(\C)[C@H](OC(N)=O)[C@@H](OC)/C=C\C=C(/C)C(=O)NC(=CC1=O)C2=O [Tanespimycin] (first compound 0.5 µM, partner dose 0.01 µM) | 64.6 | 84.8 | 101
COc1ccc(C2=N[C@@H](c3ccc(Cl)cc3)[C@@H](c3ccc(Cl)cc3)N2C(=O)N2CCNC(=O)C2)c(OC(C)C)c1 [Nutlin-3] + Cn1c(Nc2ccc(C(F)(F)F)cc2)nc2cc(Oc3ccnc(-c4ncc(C(F)(F)F)[nH]4)c3)ccc21 [CHIR265] (first compound 0.5 µM, partner dose 0.4 µM) | 51.5 | 65.6 | 83.1
Cc1cn(-c2cc(NC(=O)c3ccc(C)c(Nc4nccc(-c5cccnc5)n4)c3)cc(C(F)(F)F)c2)cn1 [nilotinib] + CNC(=O)c1cc(Oc2ccc(NC(=O)Nc3ccc(Cl)c(C(F)(F)F)c3)cc2)ccn1 [sorafenib] (first compound 1 µM, partner dose 2 µM) | 76.5 | 119 | 102
Cc1cn(-c2cc(NC(=O)c3ccc(C)c(Nc4nccc(-c5cccnc5)n4)c3)cc(C(F)(F)F)c2)cn1 [nilotinib] + C=C(c1ccc(C(=O)O)cc1)c1cc2c(cc1C)C(C)(C)CCC2(C)C [Bexarotene] (first compound 1 µM, partner dose 10 µM) | 83.4 | 96.3 | 142
CC(C)C[C@H](NC(=O)[C@H](Cc1ccccc1)NC(=O)c1cnccn1)B(O)O [Bortezomib] + O=C(O)c1ccc(-c2c[nH]c3ncc(-c4ccccc4)cc23)cc1C1CCCC1 [GSK650394] (first compound 0.005 µM, partner dose 0.8 µM) | 8.99 | 14.9 | 73.1
CC(C)C[C@H](NC(=O)[C@H](Cc1ccccc1)NC(=O)c1cnccn1)B(O)O [Bortezomib] + Nc1cccc2c1CN(C1CCC(=O)NC1=O)C2=O [lenalidomide] (first compound 0.005 µM, partner dose 5 µM) | 14.8 | 16.6 | 87.8
Cn1c(=O)n(-c2ccc(C(C)(C)C#N)cc2)c2c3cc(-c4cnc5ccccc5c4)ccc3ncc21 + COc1ccc(-c2ccc3c(N4CCOCC4)nc(N4C[C@@H](C)O[C@@H](C)C4)nc3n2)cc1CO [KU0063794] (first compound 0.02 µM, partner dose 0.1 µM) | 70.8 | 62.8 | 99.1
Cc1cn(-c2cc(NC(=O)c3ccc(C)c(Nc4nccc(-c5cccnc5)n4)c3)cc(C(F)(F)F)c2)cn1 [nilotinib] + C[C@]1(O)C[C@@H](c2nc(-c3ccc4ccc(-c5ccccc5)nc4c3)c3c(N)nccn32)C1 [OSI906] (first compound 1 µM, partner dose 2 µM) | 78.1 | 91.5 | 99.3
Cc1cn(-c2cc(NC(=O)c3ccc(C)c(Nc4nccc(-c5cccnc5)n4)c3)cc(C(F)(F)F)c2)cn1 [nilotinib] + CCc1ccc(CCOc2ccc(CC3SC(=O)NC3=O)cc2)nc1 [pioglitazone] (first compound 1 µM, partner dose 10 µM) | 95.6 | 124 | 148
Cc1cc(Nc2cc(N3CCN(C)CC3)nc(/C=C/c3ccccc3)n2)n[nH]1 + C=CCNC1=C2C[C@@H](C)C[C@H](OC)[C@H](O)[C@@H](C)/C=C(\C)[C@H](OC(N)=O)[C@@H](OC)/C=C\C=C(/C)C(=O)NC(=CC1=O)C2=O [Tanespimycin] (first compound 0.2 µM, partner dose 0.01 µM) | 56.6 | 77.8 | 90.5
CC(C)C[C@H](NC(=O)[C@H](Cc1ccccc1)NC(=O)c1cnccn1)B(O)O [Bortezomib] + COc1cc(Nc2ncc(F)c(Nc3ccc4c(n3)NC(=O)C(C)(C)O4)n2)cc(OC)c1OC [Tamatinib] (first compound 0.005 µM, partner dose 2 µM) | 6.33 | 7.69 | 83.4
Cn1c(=O)n(-c2ccc(C(C)(C)C#N)cc2)c2c3cc(-c4cnc5ccccc5c4)ccc3ncc21 + CC1(C)NC(=O)N(c2ccc([N+](=O)[O-])c(C(F)(F)F)c2)C1=O [nilutamide] (first compound 0.02 µM, partner dose 5 µM) | 54.9 | 41.1 | 84.4
CC(C)C[C@H](NC(=O)[C@H](Cc1ccccc1)NC(=O)c1cnccn1)B(O)O [Bortezomib] + COCC[n+]1c2c(n(Cc3cnccn3)c1C)C(=O)c1ccccc1C2=O [YM155] (first compound 0.005 µM, partner dose 0.002 µM) | 27.4 | 11.9 | 84.4
COc1ccc(C2=N[C@@H](c3ccc(Cl)cc3)[C@@H](c3ccc(Cl)cc3)N2C(=O)N2CCNC(=O)C2)c(OC(C)C)c1 [Nutlin-3] + CO[C@@H]1[C@H](N(C)C(=O)c2ccccc2)C[C@H]2O[C@]1(C)n1c3ccccc3c3c4c(c5c6ccccc6n2c5c31)C(=O)NC4 [Midostaurin] (first compound 0.5 µM, partner dose 0.4 µM) | 53.9 | 67.5 | 74.8
Cn1c(=O)n(-c2ccc(C(C)(C)C#N)cc2)c2c3cc(-c4cnc5ccccc5c4)ccc3ncc21 + COc1cc2c(Oc3ccc4[nH]c(C)cc4c3F)ncnc2cc1OCCCN1CCCC1 [cediranib] (first compound 0.02 µM, partner dose 2 µM) | 78.9 | 55.1 | 80.7
Cc1cc(Nc2cc(N3CCN(C)CC3)nc(/C=C/c3ccccc3)n2)n[nH]1 + Cc1cc(N2CCOCC2)cc2[nH]c(-c3c(NC[C@@H](O)c4cccc(Cl)c4)cc[nH]c3=O)nc12 [BMS536924] (first compound 0.2 µM, partner dose 1 µM) | 68.1 | 73.4 | 99.4
CC(C)C[C@H](NC(=O)[C@H](Cc1ccccc1)NC(=O)c1cnccn1)B(O)O [Bortezomib] + Cn1nnc2c(C(N)=O)ncn2c1=O [temozolomide] (first compound 0.005 µM, partner dose 10 µM) | 8.38 | 14.9 | 81.5
Cn1c(=O)n(-c2ccc(C(C)(C)C#N)cc2)c2c3cc(-c4cnc5ccccc5c4)ccc3ncc21 + CCCS(=O)(=O)Nc1ccc(F)c(C(=O)c2c[nH]c3ncc(Cl)cc23)c1F [PLX4720] (first compound 0.02 µM, partner dose 0.4 µM) | 71.1 | 72.2 | 105
COc1ccc(C2=N[C@@H](c3ccc(Cl)cc3)[C@@H](c3ccc(Cl)cc3)N2C(=O)N2CCNC(=O)C2)c(OC(C)C)c1 [Nutlin-3] + COc1cc2c(Oc3ccc4[nH]c(C)cc4c3F)ncnc2cc1OCCCN1CCCC1 [cediranib] (first compound 0.5 µM, partner dose 2 µM) | 68.6 | 102 | 90.6
